# Experimental data: PubChem BioAssay AID602332 (National Center for Advancing Translational Sciences (NCATS), 2012)
# “And” between values parts separate entries of the source, which are not always exact repeats. Equal entries are not always repeated. The whole screen tested about 420,000 compounds, of which about 75 (0.02%) were called active. Inconclusive means that the source gave no clear call. Such entries were picked first, then a sample of the others. Calls come from the whole dose curve; as a rule, active = well fitted activation curve with a large enough effect; inconclusive = small, poorly fitted or top-dose-only effect; inactive = no such curve, though single readings can be large or run the other way. Potencies of inconclusive entries are doubtful fits and often do not repeat.
# Assay: qHTS for Inducers of the Endoplasmic Reticulum Stress Response (ERSR) in Human Glioma: qHTS; note: nearly all actives have a fitted effect of over 35% in size; for activation: % of control where 0% means no effect
# Conditions: U87-MG GRP78 promoter luciferase reporter, 16 h; activation: hits give high values
# Procedure, shortened: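 ERSR induction read as luciferase luminescence (Bright-Glo, 10 min at room temperature) in stably transfected human U87-MG glioma cells exposed to compounds for 16 h, using GRP78 as sensor.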
# Potency is the fitted concentration of half-maximal effect; tags give direction and shape of the fitted curve.
Structure (SMILES),activation,Potency
COc1ccc(CNC(=O)Cc2csc(Nc3nc(=S)[nH]c4ccccc34)n2)cc1,inactive: 0.579%,–
CCCCCOc1ccc(Cn2ccnc2)cc1[N+](=O)[O-],–,"inconclusive: 56.2 µM [activator, single point]"
Oc1ccc2c(c1)OCC1(O)Cc3cc(O)c(O)cc3C21 (stereo not given),–,"inconclusive: 14.1 µM [activator, single point]"
CC(=O)c1c(O)c(C)c(O)c2c1OC1=CC(=O)C(C(C)=O)C(=O)C12C (stereo not given),inactive: -0.154%,–
CC(=O)Nc1cc(-c2ccc(CO)cc2)cn2c(-c3cccc(C(F)(F)F)c3)cnc12,–,"inconclusive: 50.1 µM [activator, single point]"
COC(=O)c1c(-c2ccc(S(C)(=O)=O)cc2)sc2cc(OC)ccc12,inactive: 4.97%,–
Cc1nc(SCc2ccc(OCCC(C)C)cc2)n[nH]1,–,"inconclusive: 50.1 µM [activator, partial curve, poor fit]"
C[C@]12CC[C@@H]3c4ccc(O)cc4CC[C@H]3[C@@H]1CCC2=O,inactive: -0.916% and inactive: -0.0076% and inactive: -2.35%,–
COc1ccc(C2(C)NC(=O)N(CC(=O)NC3CCCC3)C2=O)cc1OC (stereo not given),inactive: -3.8%,–
CCN(CC)S(=O)(=O)c1ccc(C(=O)NN(C)C2=NS(=O)(=O)c3ccccc32)cc1,inactive: -1.74%,–
Clc1ccc(-c2csc(Nc3cccnc3)n2)cc1,–,"inconclusive: 11.2 µM [activator, partial curve, poor fit]"
COc1ccc2[nH]c3c(N4CCN(Cc5ccc6c(c5)OCO6)CC4)ncnc3c2c1,inactive: -11.9%,–
Cc1ccc(-n2ncc3c(NCc4ccco4)ncnc32)cc1C,inactive: 5.23%,–
Cc1c(Cl)cccc1NC(=O)CCCn1nc(C)c2sc3ccccc3c2c1=O,–,"inconclusive: 50.1 µM [activator, single point]"
COc1cc(/C=C2/C(=O)NN(c3cccc(F)c3)C2=O)ccc1OC(=O)c1ccco1,–,"inconclusive: 50.1 µM [activator, single point]"
Cc1ccc(NC(=O)CCOc2ccccc2)cc1,–,"inconclusive: 5.01 µM [activator, partial curve, poor fit]"
Cc1ccc2c(n1)Oc1ccc(C(C)C(=O)OCC(=O)N(C)C)cc1C2 (stereo not given),inactive: 0.34% and inactive: -0.378%,–
C/C(=N\Nc1ccc([N+](=O)[O-])cc1)c1ccco1,–,"inconclusive: 14.1 µM [activator, single point]"
Cn1nc(-c2ccccc2)cc1NC(=O)Nc1ccccc1F,–,"inconclusive: 14.1 µM [activator, partial curve, poor fit]"
CCCN1CCN(CCCNC(=O)c2cc3c(Cl)nc4ccccc4c3s2)CC1,–,"inconclusive: 11.2 µM [activator, single point]"

Structure (SMILES),activation,Potency
COc1ccc(C(=O)/C=C/C(=O)N(Cc2ccc(F)cc2)C(C(=O)NC2CCCCC2)c2ccncc2)c(O)c1 (stereo not given),inactive: -2.69%,–
COc1cc([N+](=O)[O-])cc2cc(C(=O)N3CCCC3)c(=O)oc12,–,"inconclusive: 39.8 µM [activator, partial curve, poor fit]"
Cc1cccc(NC(=O)c2ccc([N+](=O)[O-])o2)c1,–,"inconclusive: 25.1 µM [activator, single point]"
COc1ccc(N2C(=O)CSC(c3ccccc3)C2=O)cc1 (stereo not given),–,"inconclusive: 22.4 µM [activator, single point]"
COc1ccc(-c2nc3cnccn3c2NC(C)(C)CC(C)(C)C)cc1O,–,"inconclusive: 12.6 µM [activator, single point]"
Cc1[nH]c2ccccc2c1/C=N/Nc1nc(Nc2ccccc2)nc(N2CCOCC2)n1,inactive: -5.53%,–
CC(C)(C)n1c(O)c2ccc(C(=O)N=NC(=O)c3ccccc3)cc2c1O,inactive: 4.59%,–
CC(=O)NC(CC(=O)O)C(=O)O (stereo not given),–,"inconclusive: 15.8 µM [activator, single point]"
c1ccc(Nc2nc3ccccc3[nH]2)nc1,–,"inconclusive: 50.1 µM [activator, single point]"
C#CCOCCOCCOCCNc1nc(N2CCN(C(=O)CCCCCCCCCCNC(=O)[C@H]([C@@H](C)CC)n3cc(CCCCN=C(N)N)nn3)CC2)nc(N2CCN(C(=O)CCCCCCCCCCNC(=O)[C@H](CCCCN)n3cc(C)nn3)CC2)n1,inactive: -10.3%,–
COc1ccc(C(=O)/C=C/Nc2ccc(S(=O)(=O)Nc3nc(C)cc(C)n3)cc2)cc1OC,–,"inconclusive: 12.6 µM [activator, single point]"
COc1ccccc1-n1c(-c2ccccc2)c[n+]2c1CCc1ccccc1-2,inactive: -7.94% and inactive: -5.71%,–
CCN(CC)S(=O)(=O)c1cccc(C(=O)N[C@H](C(=O)OCC(=O)Nc2ccccc2)C(C)C)c1,–,"inconclusive: 50.1 µM [activator, single point]"
COc1ccc(-c2noc(N3CCC(C(=O)Nc4ccccc4F)CC3)n2)cc1,inactive: -0.755%,–
COC1=C2C[C@@H](C)C[C@H](OC)[C@H](O)[C@@H](C)/C=C(\C)[C@H](OC(N)=O)[C@@H](OC)/C=C\C=C(/C)C(=O)NC(=CC1=O)C2=O,–,"inconclusive: 35.5 µM [activator, partial curve, poor fit]"
CCCOc1ccc(N2C(=O)CC(N3CCC(O)(c4cccc(C(F)(F)F)c4)CC3)C2=O)cc1 (stereo not given),inactive: -5.29%,–
NC(=O)C1CN(C(=O)c2nn(Cc3ccccc3)c(=O)c3ccccc23)c2ccccc2O1 (stereo not given),inactive: -3.87%,–
CC1(OC(=O)CCc2ccccc2)C(=O)C=C2C=C(c3ccc(C#N)cc3)N(c3ccccc3)C=C2C1=O (stereo not given),inactive: -1.35%,–
O=c1c2ccccc2cnn1CCOc1cccc(Br)c1,–,"inconclusive: 56.2 µM [activator, partial curve, poor fit]"
Cc1ccc(NS(=O)(=O)c2ccc3oc(=O)c4ncn(C)c4c3c2)cc1C,–,"inconclusive: 44.7 µM [activator, single point]"
